Laboratory results reported in patent US7507412B2, “Glycoprotein VI fusion proteins” (Merck Patent GmbH, priority 2001, dated 2009).

Target: collagen type III (coated on microtiter plates)
Test: ELISA saturation curve, collagen type III coated plates

concentration at which collagen-binding sites are completely occupied: > 100 nM
B1: GPVI-Fc fusion protein (as encoded in KL74A) (Fc fusion)
chain: LAFKLKLQSGPLPKPSLQALPSSLVPLEKPVTLRCQGPPGVDLYRLEKLSSSRYQDQAVLFIPAMKRSLAGRYRCSYQNGSLWSLPSDQLELVATGVFAKPSLSAQPGPAVSSGGDVTLQCQTRYGFDQFALYKEGDPAPYKNPERWYRASFPIITVTAAHSGTYRCYSFSSRDPYLWSAPSDPLELVVTGTSVTPSRLPTEPPSSVAEFSEATAELTVSFTNKVFTTETSRSITTSPKESDSPAGPARQYYTKGNCGR[human IgG1 Fc with changes omitted here]
